# Several values for one entry are separate records, joined by “and”; a condition that tells them apart may be missing. Identical values can stand only once. Screen size: about 110,000 compounds; about 230 (0.21%) showed an effect of 50% or more. Some of the results follow.
# Target: DPAP1 (Plasmodium falciparum, UniProt Q8IIJ9)
# Assay: primary screen, percent inhibition; read by cleavage of a fluorogenic dipeptide substrate; higher = more effect of the substance
# Set-up: species or system P. falciparum D10 trophozoite lysates; single well
# 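Also: 30 min substrate incubation versus DMSO and 10 µM JCP410 controls.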
# DPAP1, sequence (Q8IIJ9 whole entry, looked up): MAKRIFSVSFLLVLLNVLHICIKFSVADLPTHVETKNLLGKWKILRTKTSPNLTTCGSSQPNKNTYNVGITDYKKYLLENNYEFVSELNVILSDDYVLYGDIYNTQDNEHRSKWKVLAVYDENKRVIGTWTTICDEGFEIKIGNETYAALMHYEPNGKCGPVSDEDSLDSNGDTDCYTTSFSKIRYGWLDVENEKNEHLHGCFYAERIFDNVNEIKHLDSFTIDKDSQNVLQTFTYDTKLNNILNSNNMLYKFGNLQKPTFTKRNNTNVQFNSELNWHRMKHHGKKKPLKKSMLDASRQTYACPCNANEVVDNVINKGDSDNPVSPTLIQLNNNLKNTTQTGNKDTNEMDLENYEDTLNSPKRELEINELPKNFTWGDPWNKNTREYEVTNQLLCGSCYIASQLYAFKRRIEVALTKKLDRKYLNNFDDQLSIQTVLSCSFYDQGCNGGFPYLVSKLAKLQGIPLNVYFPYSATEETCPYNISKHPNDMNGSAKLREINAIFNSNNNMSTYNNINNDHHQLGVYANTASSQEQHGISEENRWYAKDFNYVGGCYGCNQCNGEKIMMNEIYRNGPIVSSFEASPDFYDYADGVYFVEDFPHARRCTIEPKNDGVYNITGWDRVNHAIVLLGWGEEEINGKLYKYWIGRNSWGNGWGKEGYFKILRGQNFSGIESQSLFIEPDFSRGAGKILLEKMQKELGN
row,SMILES,% Inhibition @ 10 uM
1,COCCNC(=O)/C(C#N)=C/c1c(Oc2ccccc2Cl)nc2c(C)cccn2c1=O,-3.46%
2,O=C(NCC1CCCO1)c1ccc(CNS(=O)(=O)c2cccc(Cl)c2)cc1 (stereo not drawn),-1.61%
3,CCOC(=O)C1=C(CN2CCOCC2)NC(=O)NC1c1ccc2c(c1)OCO2 (stereo not drawn),0.9%
4,Cc1nc2ccn(Cc3cccs3)c(=O)c2cc1C(=O)N1CCOCC1,3.16%
5,Cc1cc(C)nc(NS(=O)(=O)c2ccc(NC(=O)c3ccc([N+](=O)[O-])cc3)cc2)n1,4.42%
6,COc1ccccc1N1CCN(C(=O)c2cc(Br)ccc2Cl)CC1,20.6%
7,O=C(CC1c2ccccc2Oc2ccccc21)NCCOc1ccccc1Cl,28.3%
8,c1ccc(-c2[nH]c3ccccc3c2-c2nc3ccccc3[nH]2)cc1,5.66%
9,O=C(NCCCN1CCOCC1)c1ccc2nc3[nH]c4ccccc4c3nc2c1,-5.92%
10,COc1ccc(C(=O)N2CCN(CCN3C(=O)c4ccccc4C3=O)CC2)cc1OC,-1.24%
11,CC1=C(C(=O)NC2CCN(Cc3ccccc3)CC2)C2(CCCCC2)OC1=O,1.55%
12,OCCNCc1ccc(OCc2ccccc2)cc1,1.83%
13,Cc1ccc(-c2noc(CN(C(=O)N3CCOCC3)C(C)C)n2)cc1,0.486%
14,Cc1ccc(CNC(=O)C2CCC(=O)N2C(C)C)cc1 (stereo not drawn),6.74%
15,CCOc1ccc(/C=C/c2nc(-c3ccc(Cl)cc3)no2)cc1OCC,-0.0735%
16,CCc1ccc2ncc(C(=O)c3ccccc3)c(N3CCCC3)c2c1,-6.42%
17,O=c1ncn(-c2ccccc2F)c2ncccc12,-10.2%
18,Cc1ccc(NC(=O)CN(c2cc(C)ccc2C)S(C)(=O)=O)c(C)c1,0.00477%
19,N#Cc1c(N)sc2c1CCCCCC2,25.3%
20,Cc1ccc2onc(CNC(=O)N3CCC(N4CCCCC4)CC3)c2c1,1.93%
21,CCOc1ccc(-n2nnc(-c3nc(-c4ccc(Cl)cc4)no3)c2N)cc1,-6.87%
22,CCOC(=O)C1=C(c2ccccc2)NC(SCC(=O)NC2CCCCC2)=C(C#N)C1c1ccco1 (stereo not drawn),-7.77%
23,CCCCCCCc1ccc(-c2nc(-c3ccc(Br)cc3)no2)cc1,4.12%
24,C=CCNC(=S)N1CCN(CC/N=C2/C=C(O)CC(C)(C)C2)CC1,-3.09%
25,O=C(c1ccco1)N1CCN(S(=O)(=O)c2ccc(-c3ccc(O)nn3)s2)CC1,0.92%

row,SMILES,% Inhibition @ 10 uM
1,O=C(NCCN1CCOCC1)c1cc(-c2cccc(Br)c2)nc2ccccc12,2.43%
2,CCNC(=O)/C(=C\c1ccccc1)NC(=O)c1ccc(Br)o1,2.84%
3,O=C(CSc1nc[nH]n1)NCc1ccccc1Cl,4.19%
4,COc1ccc(-c2nc(NC(=O)CSc3ccccc3)sc2CCC(=O)O)cc1,-0.884%
5,CCOc1cc(/C=C2/SC(N)=NC2=O)ccc1OCc1ccc(F)cc1,-0.425%
6,CCOc1ccc(C2C=C(c3ccc(CC)cc3)Nc3ncnn32)cc1OC (stereo not drawn),6.17%
7,CCC(=O)Nc1cccc(-c2nc3ncccc3o2)c1,-0.48%
8,CCOc1ccccc1C1C(C#N)=C(N)Oc2cc(O)c(Cl)cc21 (stereo not drawn),-6.18%
9,CC(C)Oc1ccc(CN2CCN(CC3COc4ccccc4O3)CC2)cc1 (stereo not drawn),-0.902%
10,Cc1cc2c(n1-c1ccc(C(=O)NCCN(C)C)cc1)CCCC2,-0.0871%
11,Cc1ccc(S(=O)(=O)NCC(=O)O)c2nsnc12,4.8%
12,COc1ccc(-c2ccc(/C=C3/SC(N4CCN(C(C)=O)CC4)=NC3=O)o2)cc1,0.487%
13,Cc1ccccc1CN(c1ccc(C(=O)Nc2ccccc2C(=O)N2CCCC2)cc1)S(C)(=O)=O,-1.51%
14,Cc1nn(Cc2ccccc2)c(C)c1NC(=O)CC12CC3CC(CC(C3)C1)C2,-9.77%
15,COc1ccc(C2C3=C(O)CCCC3=NC(C)=C2C(=O)Nc2ccc(Br)cn2)c(OC)c1 (stereo not drawn),-3.9%
16,Cc1ccc(S(=O)(=O)NC(C)C(=O)NCc2ccc(Cl)cc2)cc1 (stereo not drawn),-7.08%
17,CCCCOC(=O)Nc1sc(-c2ccccc2)cc1C(=O)OCC,2.38%
18,Cn1nc(C(=O)NCC2CCCO2)c2c1-c1ccccc1SC2 (stereo not drawn),25.5%
19,COc1ccccc1CNc1ccc(CNc2nc[nH]n2)cc1,-5.06%
20,COC(=O)c1cccc(-c2ccc(C=C3C(=O)OC(c4ccccc4)OC3=O)o2)c1 (stereo not drawn),1.84%
21,CCCCc1ccc(/C=C(\C#N)C(N)=S)s1,5.43%
22,Cc1cc(C)cc(Oc2nc3c(C)cccn3c(=O)c2/C=C(\C#N)C(=O)NCCc2ccccc2)c1,0.315%
23,CCN(c1ccccc1)S(=O)(=O)c1ccc(NC(=O)COc2ccc(Cl)cc2)cc1,-0.795%
24,CCOc1ccc(C(=O)C2=C(O)C(=O)N(CCN3CCOCC3)C2c2ccccc2F)cc1C (stereo not drawn),1.52%
25,O=C1N/C(=C\c2cccn2-c2ccccc2)C(=O)N1Cc1ccc(Cl)cc1,-3.06%

row,SMILES,% Inhibition @ 10 uM
1,CC1(C)Cc2ccccc2-c2nnc(-c3ccccc3)n21,-1.07% and -1.99%
2,CCOc1ccccc1Oc1coc2cc(O)ccc2c1=O,0.628%
3,O=C(NCCc1nc2ccccc2n1CCOc1ccc(Cl)cc1)c1ccco1,-8.48%
4,CCOC(=O)c1cc2c(=O)n3ccccc3nc2n(Cc2ccco2)/c1=N/C(=O)/C=C/c1ccccc1,1.26%
5,CC(C)Cn1c(S)nnc1-c1nn(C)cc1Cl,0.64%
6,CCCn1c(=N)c(C(=O)OCC)cc2c(=O)n3cccc(C)c3nc21,-1.47%
7,Cc1ccc2c(=O)c(C(=O)c3ccc(Cl)cc3)cn(CC(=O)NC3CCCC3)c2n1,2.01%
8,CC(O)c1cccc(NC(=O)c2cnn3c2NC(c2cccs2)CC3C(F)(F)F)c1 (stereo not drawn),-0.725%
9,C#CC(C)(CC)NC(=O)c1ccc(Cl)cc1 (stereo not drawn),-6.28%
10,Cc1sc2c(c1C)c(=O)n(CCc1ccccc1)c(=O)n2Cc1ccccc1C#N,-7.27%
11,COCCNC(=O)c1cc2c(s1)-c1ccccc1OC2,1.89%
12,OC(COc1ccccc1F)CN1CCN(c2ccc(F)cc2)CC1 (stereo not drawn),-3.29%
13,COc1cccc(C2CC(=O)N3C(=C2C#N)SCC3(O)c2ccc(Cl)cc2)c1OC (stereo not drawn),-0.0235%
14,COc1ccc(NC(=O)c2ccccc2NC(=O)c2ccccc2)cc1,-1.98%
15,Cc1ccc(C2=CC(c3ccccc3C)n3ncnc3N2)cc1 (stereo not drawn),4.86%
16,CC12C(=O)N(Cc3ccccc3)C(=O)C1C1C=CC2C1 (stereo not drawn),-2.78%
17,CN1C(=O)C(=Cc2cn(CCOc3ccccc3)c3ccccc23)C(=O)N(C)C1=O,-1.26%
18,COc1ccccc1-n1c(C)cc(/C=C2/C(=N)N3C(SC)=NSC3=NC2=O)c1C,0.205%
19,COc1ccccc1/C=C/C=c1\sc2nc(-c3ccccc3C)nn2c1=O,-1.18%
20,O=S(=O)(c1ccccc1)c1ccc(S(=O)(=O)N2CCOCC2)cc1,-2.07%
21,Cc1ccc(C(=O)Nc2c(C(=O)N3CCOCC3)cnn2-c2ccccc2)cc1,14.5%
22,Cc1[nH]nc2c1C1(CCCCC1)C(C#N)=C(N)O2,-6.7%
23,CC(C)CC(NC(=O)N1CCN(C)CC1)C(=O)NCC#N (stereo not drawn),2.22%
24,COCCNC(=O)CCc1nc(-c2ccccc2Cl)no1,0.366%
25,CC(=O)c1ccc(-n2cnc3c(sc4nc5ccccc5cc43)c2=O)cc1,-2.77%

row,SMILES,% Inhibition @ 10 uM
1,O=C(CNCc1ccccc1)N1c2ccccc2Sc2ccc(C(F)(F)F)cc21,-2.36%
2,CC1(C)Cc2nc(O)c(Cc3ccccc3)c(O)c2C(O)C1 (stereo not drawn),-2.83%
3,CN1C(C(=O)N2CCC(C(N)=O)CC2)=CC(c2cccs2)=NS1(=O)=O,2.32%
4,O=C(NCc1ccccc1)c1cccc2c1-c1ccccc1C2=O,1.27%
5,CCOc1cccc(OCC)c2c(C)nc(C)c1-2,-1.57%
6,COc1ccc(C2(CNC(=O)Cc3ccc(OC)c(OC)c3)CCCC2)cc1,-0.865%
7,COc1ccc(CNC(=O)c2ccc(CS(=O)Cc3ccc(Cl)cc3)o2)cc1 (stereo not drawn),-3.61%
8,Cc1ccc(NC(=O)c2ccc(Br)cc2)c([N+](=O)[O-])c1,2.46%
9,Cc1nn(CCCC(=O)N2CCN(Cc3ccccc3)CC2)c(=O)c2c1sc1ccccc12,-4.09%
10,C/C(=C1/SC(N2CCCC2)=NC1=O)c1ccc(Br)cc1,1.88%
11,COc1ccc(N(C(C)C(=O)Nc2cccc(C)c2)S(C)(=O)=O)cc1 (stereo not drawn),3.53%
12,CC(SCc1nc2ccccc2[nH]1)c1ccccc1 (stereo not drawn),-0.0235%
13,Cc1cnn(-c2nc(-c3ccccc3)cc(-c3ccccc3)n2)c1,5.73%
14,CCCN(CCO)C1CCCC(C)C1 (stereo not drawn),-0.603%
15,COc1cc(C)c(CNCCc2cccc(F)c2)cc1C,15.4%
16,CS(=O)(=O)N(CC(=O)N1CCCCCC1)c1cccc(F)c1,2.54%
17,Cc1cc(O)nc2c(C)c(Cl)ccc12,-1.96%
18,CCC(C)c1ccc(NC(=O)c2nn(C)cc2Br)cc1 (stereo not drawn),-8.38%
19,CCOc1ccc(S(=O)(=O)Nc2cc(OC)c(Cl)cc2OC)cc1,-2.83%
20,Cc1nc2ccccc2n1CCN1CCOCC1,-2.35%
21,CC(C)(C)CNC(=O)C(=O)Nc1ccc(Cl)c(Cl)c1,-0.414%
22,Fc1cccc(Cl)c1CN1CCc2c([nH]c3ccccc23)C1,6.54%
23,CC1(C)COC(CCCOc2ccc(Cl)cc2Cl)=N1,-2.02%
24,O=C(CN1C(=O)S/C(=C/c2cccc(Cl)c2)C1=O)N1CCOCC1,1.35%

# Reference: publication PMC6919601, “Identification of Plasmodium dipeptidyl aminopeptidase allosteric inhibitors by high throughput screening” (PLoS ONE, 2019)
